Results reported in PubChem BioAssay AID624417 (National Center for Advancing Translational Sciences (NCATS), 2012).
Out of some 410,000 compounds screened, about 6,400 (1.6%) were called active. Inconclusive means that the source gave no clear call. Such entries were picked first, then a sample of the others. Calls come from the whole dose curve; as a rule, active = well fitted inhibition curve with a large enough effect; inconclusive = small, poorly fitted or top-dose-only effect; inactive = no such curve, though single readings can be large or run the other way. No potency is given beside an inconclusive call; the fits are too rough.

target: Glucagon-like peptide 1 receptor (Homo sapiens) (UniProt P43220); experiment: qHTS of GLP-1 Receptor Inverse Agonists (Inhibition Mode); details: HEK293 GLP-1R CRE-luciferase, luminescence, 24 h, GLP-1R form is constitutively active; activity change, negative = inhibition: at 38.3 µM (top of the series) unless noted; note: nearly all actives have a fitted effect of over 55% in size
Method in brief: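 Luminescence readout: a drop in cAMP-driven luciferase signal flags inverse agonism at a constitutively active GLP-1R stably expressed in HEK293. Compound exposure lasted 24 hr at 37 deg C, 5% CO2.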
% is set by controls: 0 for no effect and ±100 for the full control effect; potency is the fitted concentration of half-maximal effect; tags give direction and shape of the fitted curve.

Sequence of UniProt P43220 (P43220 whole entry, looked up): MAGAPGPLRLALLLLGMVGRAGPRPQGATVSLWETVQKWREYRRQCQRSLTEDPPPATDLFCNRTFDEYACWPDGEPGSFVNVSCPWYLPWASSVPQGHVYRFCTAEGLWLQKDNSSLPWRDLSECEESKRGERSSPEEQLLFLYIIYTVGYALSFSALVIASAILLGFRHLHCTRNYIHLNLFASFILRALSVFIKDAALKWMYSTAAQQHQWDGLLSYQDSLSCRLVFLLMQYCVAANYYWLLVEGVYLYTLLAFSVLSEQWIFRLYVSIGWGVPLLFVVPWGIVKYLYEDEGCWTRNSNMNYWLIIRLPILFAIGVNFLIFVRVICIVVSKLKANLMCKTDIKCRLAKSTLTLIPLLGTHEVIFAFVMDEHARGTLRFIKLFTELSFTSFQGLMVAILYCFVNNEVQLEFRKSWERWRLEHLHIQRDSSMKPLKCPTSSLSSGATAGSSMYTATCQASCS

Row | SMILES | Potency | activity change, negative = inhibition
1 | OCC1(Cc2ccccc2)CCN(C2CCN(c3ccc(F)c(F)c3)CC2)CC1 | inconclusive [inhibitor, partial curve, poor fit] | 
2 | Cc1ccc2c(c1)-c1c(cnn1CC(=O)N1CCCN(Cc3ccccc3F)C1)CO2 | inconclusive [inhibitor, single point] | 
3 | CC(C)n1nc(C(=O)NC2CCCCCC2)c2ccccc2c1=O | inconclusive [inhibitor, single point] | 
4 | CC(C)Cc1ccc(C(C)C(=O)Nc2nccs2)cc1 (centres undefined) | inconclusive [inhibitor, partial curve, poor fit] | 
5 | CNC(=O)c1cccc(NC(=O)c2cc(-c3ccccc3)nc3c2cnn3C(C)C)c1 | inconclusive [inhibitor, partial curve, poor fit] | 
6 | CCCn1c(NC(=O)c2ccc(Cl)c(S(=O)(=O)N3CCCC3)c2)nc2ccccc21 | inconclusive [inhibitor, single point] | 
7 | CCc1nc2ccc(C(=O)NCCCn3ccnc3)cn2c1N(CC)CCOC |  | inactive: 3%
8 | CCC1Nc2ncnc(N3CCc4ccccc4C3)c2N(Cc2ccc(Br)cc2)C1=O (centres undefined) | inconclusive [inhibitor, partial curve, poor fit] | 
9 | CCOC(=O)c1c(N2C(=O)Nc3cc(Cl)c(Cl)cc3N2O)sc2c1CCCCC2 | inconclusive [inhibitor, partial curve, poor fit] | 
10 | O=C(Nn1cc(C(=O)Nc2ccccc2F)c2ccccc2c1=O)c1cnccn1 |  | inactive: 12.3% [at 7.66 µM]
11 | Cc1ccc(Cc2c(-c3ccc(Br)cc3)nc3ccc(Cl)cn23)cc1 | inconclusive [inhibitor, single point] | 
12 | CC(NC(=S)NC1CCC(C(C)(C)C)CC1)c1ccccc1 (centres undefined) | active: 10 µM | 
13 | Cc1cccc(Cn2c(SCc3ccc(C(=O)NCCc4ccccc4)cc3)nc3cccnc32)c1 | inconclusive [inhibitor, single point] | 
14 | N#Cc1ccccc1Oc1ccccc1C=O | inconclusive [inhibitor, partial curve, poor fit] | 
15 | Cc1ccc(S(=O)(=O)c2cc3c(=O)n4ccccc4nc3n(Cc3ccco3)c2=N)cc1C |  | inactive: 26.2%
16 | O=C(O)c1cc(S(=O)(=O)N(Cc2ccccc2)c2cccc(C(F)(F)F)c2)ccc1Cl | inconclusive [inhibitor, partial curve, poor fit] | 
17 | CC(C)(C)c1ccc(S(=O)(=O)N2CCCCC2)cc1 | inconclusive [inhibitor, single point] | 
18 | COc1ccc(C)cc1NC(=O)C1CCCN(S(=O)(=O)c2ccc3c(c2)oc(=O)n3C)C1 (centres undefined) |  | inactive: -13%
19 | Nc1nonc1-n1nnc(C(=O)N/N=C/c2ccncc2)c1-c1cccs1 | inconclusive [inhibitor, single point] | 
20 | COc1cccc(N2CCN(C(=O)Cn3cnc4onc(-c5ccc(F)cc5)c4c3=O)CC2)c1 | inconclusive [inhibitor, single point] | 
21 | N#Cc1ccc(NC(=O)c2nc(-c3ccccc3)n(-c3ccccc3)n2)cc1 | inconclusive [inhibitor, partial curve] | 
22 | Cc1cc(C(=O)N/N=C/c2ccc(-c3ccc([N+](=O)[O-])cc3C)o2)n[nH]1 |  | inactive: -6.8%

Row | SMILES | Potency | activity change, negative = inhibition
23 | Cc1ccc(C(=O)O)cc1NC(=S)NC(=O)c1ccc(COc2ccccc2)cc1 |  | inactive: 2.33%
24 | COc1ccc(NC(=O)CN2CCN(c3ccc(C)cc3C)CC2)cc1 | inconclusive [inhibitor, single point] | 
25 | O=C(c1ccc(C(F)(F)F)n(Cc2ccc(Cl)cc2)c1=O)N1CCOCC1 | inconclusive [inhibitor, partial curve, poor fit] | 
26 | Nc1nc(Cl)cc(N2CCC(c3cc(-c4ccc(Cl)cc4Cl)n[nH]3)CC2)n1 | inconclusive [inhibitor, single point] | 
27 | CCCN(CCC)C(C(=O)Nc1cccc(OC)c1)c1ccccc1 (centres undefined) | inconclusive [inhibitor, single point] | 
28 | CCCCc1cc(=O)oc2c(CN(CC)CC)c(O)c(Cl)cc12 |  | inactive: 7.18%
29 | CCc1cccc(CC)c1-n1c(SCn2nnc3ccccc3c2=O)nnc1-c1cccnc1 | inconclusive [inhibitor, single point] | 
30 | COc1ccc(C(=O)NCCN2CCCC2)cc1OC |  | inactive: -7.76%
31 | O=C(c1cc(Cl)cc(Cl)c1)N1CCC(=O)N(C(COCc2ccccc2)Cc2ccccc2)CC1 (centres undefined) | inconclusive [inhibitor, partial curve, poor fit] | 
32 | COc1ccc(CNc2oc(COc3cccc(C)c3)nc2C#N)cc1 | inconclusive [inhibitor, single point] | 
33 | CC(C)CCN(CCC(C)C)CC(O)Cn1c2ccccc2c(=O)c2ccccc21 (centres undefined) |  | inactive: 2.06%
34 | Cn1cc(S(=O)(=O)N2CCCC2)cc1C(=O)Nc1ccc(C(F)(F)F)cc1 | inconclusive [inhibitor, partial curve, poor fit] | 
35 | CC(C)(C)c1ccc(OCC(=O)N/N=C/c2ccsc2)cc1 | inconclusive [inhibitor, single point] | 
36 | COC(=O)c1c(C)oc(C)c1S(=O)(=O)Nc1ccc(C(C)C)cc1 | inconclusive [inhibitor, partial curve, poor fit] | 
37 | Cc1cc(Cl)ccc1OCC(=O)Nc1cccc(S(=O)(=O)N2CCCC2)c1 | inconclusive [inhibitor, single point] | 
38 | COc1ccc(-c2csc(NC(=O)CCCc3nc4ccccc4c(=O)[nH]3)n2)cc1OC | inconclusive [inhibitor, single point] | 
39 | COc1cccc(C2CC(=O)Nc3cc(C)c(C)cc32)c1 (centres undefined) | inconclusive [inhibitor, partial curve, poor fit] | 
40 | Cc1nc(N2CCN(Cc3ccccc3)CC2)nc2c1CCC2 | inconclusive [inhibitor, single point] | 
41 | CCOC(=O)C1=C(C)NC(=S)NC1/C=C/c1ccccc1 (centres undefined) | inconclusive [inhibitor, single point] | 
42 | CC(c1ccc(O)cc1)(c1ccc(O)cc1)c1ccc(CCBr)cc1 | inconclusive [inhibitor, partial curve, poor fit] | 
43 | CN(Cc1c(C(=O)N/N=C/c2cccc(O)c2)nnn1-c1nonc1N)C1CCCCC1 | inconclusive [inhibitor, single point] | 
44 | COc1ccc(NC(=O)c2cc(-c3cc(F)ccc3OC)n[nH]2)c(C)c1 |  | inactive: -29%

Row | SMILES | Potency | activity change, negative = inhibition
45 | O=C(Nc1ccc(Cl)c(Cl)c1)C1CCN(C(=O)c2ccco2)CC1 | inconclusive [inhibitor, single point] | 
46 | Cc1ccc(C)c(N=C2CCCN2Cc2ccccc2)c1C#N | inconclusive [inhibitor, partial curve, poor fit] | 
47 | CCc1nnc(NC(=O)CSc2nccn2Cc2ccc(F)cc2)s1 |  | inactive: 7.33%
48 | CC1(CCC(=O)N2CCCC(N3CCN(c4cccc(C(F)(F)F)c4)CC3)C2)CC1 (centres undefined) | inconclusive [inhibitor, single point] | 
49 | O=C(c1[nH]c(C(F)(F)F)nc1-c1ccccc1)N1CCN(c2ncccc2C(F)(F)F)CC1 | inconclusive [inhibitor, partial curve, poor fit] | 
50 | COCc1nnc(NC(=O)c2ccc(S(=O)(=O)N(C)c3ccccc3)cc2)o1 | inconclusive [inhibitor, single point] | 
51 | CC(C)CN(CC(C)C)C(=O)C12CCC(C)(C(=O)C1)C2(C)C (centres undefined) | inconclusive [inhibitor, full curve] | 
52 | O=C(C[C@H]1CC[C@@H]2[C@H](COC[C@H](O)CN2Cc2cccc(F)c2)O1)NCc1cccc(F)c1 |  | inactive: 2.05%
53 | COc1ccc(N2CCN(CC(O)COc3ccc(C(C)C)c(C)c3)CC2)cc1 (centres undefined) | active: 12.6 µM | 
54 | Cc1cc(C)cc(NC(=O)C2CCN(c3nccs3)CC2)c1 | inconclusive [inhibitor, partial curve, poor fit] | 
55 | Cc1nnc(N2CCN(c3ccccc3F)CC2)c2c1nnn2Cc1ccccc1Cl |  | inactive: 2.99%
56 | CCN1CCc2c(sc3c2c(NCc2ccco2)nc2nnnn23)C1 |  | inactive: 1.4%
57 | CC(Cl)C(=O)NC(=O)NC12CC3CC(CC(C3)C1)C2 (centres undefined) | inconclusive [inhibitor, partial curve, poor fit] | 
58 | CC(Sc1ccc(Cl)cc1)C(=O)NCc1ccc2c(c1)OCO2 (centres undefined) | inconclusive [inhibitor, single point] | 
59 | S=C(NCc1ccco1)N1CCN(C(c2ccccc2)c2ccccc2)CC1 | inconclusive [inhibitor, single point] | 
60 | CC(C)C[C@H](NC(=O)c1nc[nH]c1C(=O)NCC(=O)OCc1ccccc1)C(=O)OC(C)(C)C | inconclusive [inhibitor, partial curve, poor fit] | 
61 | Cc1cc(NN)nc(Cc2ccccc2)n1 | inconclusive [inhibitor, single point] | 
62 | Cc1ccc(S(=O)(=O)NNC(=S)Nc2cccc(C)c2C)cc1 | inconclusive [inhibitor, partial curve, poor fit] | 
63 | CC(C)=CCC/C(C)=C/CNC(=O)C[C@H]1C[C@H](C(=O)N2CCOCC2)[C@@]2(C)c3[nH]c4ccc(Cl)cc4c3CCN2C1=O |  | inactive: 5.93%
64 | Cc1cc(Cl)cc(Cl)c1OCCOCCN(C)C | active: 11.2 µM | 
